The values that follow come from patent US20040265960A1 (Pfizer, published 2004).

For the assay, the target named is human IL-21R expressed on cells (human, UniProt Q9HBE5 20-538). Kind of assay: cell-based or functional assay.
UniProt Q9HBE5, sequence (Q9HBE5 20-538): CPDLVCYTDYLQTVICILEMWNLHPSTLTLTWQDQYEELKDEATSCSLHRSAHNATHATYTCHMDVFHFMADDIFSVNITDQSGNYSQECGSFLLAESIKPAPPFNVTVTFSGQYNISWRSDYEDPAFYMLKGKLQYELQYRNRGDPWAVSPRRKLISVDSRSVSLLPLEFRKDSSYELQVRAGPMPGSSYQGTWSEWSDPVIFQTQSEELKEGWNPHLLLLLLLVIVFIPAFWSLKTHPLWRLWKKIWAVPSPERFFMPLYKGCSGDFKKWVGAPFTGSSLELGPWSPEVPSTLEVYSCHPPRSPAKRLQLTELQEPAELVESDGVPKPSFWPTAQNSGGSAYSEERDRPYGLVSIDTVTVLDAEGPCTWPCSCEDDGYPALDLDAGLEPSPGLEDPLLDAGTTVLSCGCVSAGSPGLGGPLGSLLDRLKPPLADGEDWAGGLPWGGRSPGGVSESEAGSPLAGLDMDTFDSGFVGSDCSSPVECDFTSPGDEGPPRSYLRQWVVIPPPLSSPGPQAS

B1: CP5G2 scFv (scFv)
scFv: [about 100 residues not given here]GWKLPFFAYWGRGTLVTVSSGGGGSGGGGSGGGGSALSSELTQDPAVSVALGQTVRITCQGDSLRTFYANWYQQKPGQAPILVIYGKSNRPSGIPDRFSGSSSGNTASLTITGAQAEDEADYYCYSRDRSGNHLGMFGGGTKLTVLG
Regarding B1, the “IC50 Value (nM) ScFv, hBaf3Mu-1 cell proliferation assay” value was found to be 329 nM.
